{
  "source": "paper PMC12820563",
  "note": "The list shows a part of the results. The list includes weakly bound sequences.",
  "data": [
    {"target": "T1, MBP-FoxP3dN (UniProt Q99JB6)", "T1 sequence": "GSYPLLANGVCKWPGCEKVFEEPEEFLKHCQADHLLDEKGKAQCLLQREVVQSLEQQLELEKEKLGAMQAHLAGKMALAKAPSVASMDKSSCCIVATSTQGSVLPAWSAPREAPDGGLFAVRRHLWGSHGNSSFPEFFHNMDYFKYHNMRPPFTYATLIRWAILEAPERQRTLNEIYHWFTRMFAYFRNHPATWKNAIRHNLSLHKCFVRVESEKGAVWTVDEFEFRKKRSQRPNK", "assay": "PD-seq (MBP pull-down with sequencing)", "settings": "20 mM Tris-HCl pH 7.5, 100 mM NaCl, 1.5 mM MgCl2, 0.4 uM protein, 0.1 uM dsDNA library, 30 min, room temperature, amylose pull-down; high values mean tight binding; double strand, one strand shown", "values": [
      {"sequence": "GATGATTGTTCTCCCAGCTGATGAATTAAACACTTCGAGTAAACAAATTTTCCTAATCTTTCTGTTCAAGCGCCATCTAC", "binding signal (RPM ratio (pull-down/input))": 0.614},
      {"sequence": "GATGATTGTTCTCCCAGCTGATGAATTAACGATCTCGAGTAAACAAATTTTCCTAATCTTTCTGTTCAAGCGCCATCTAC", "binding signal (RPM ratio (pull-down/input))": 0.332},
      {"sequence": "GATGATTGTTCTCCCAGCTGATGAATTTATACCTTCGAGTAAACAAATTTTCCTAATCTTTCTGTTCAAGCGCCATCTAC", "binding signal (RPM ratio (pull-down/input))": 0.85},
      {"sequence": "GATGATTGTTCTCCCAGCTGATGAATTCAGTACTTCGAGTAAACAAATTTTCCTAATCTTTCTGTTCAAGCGCCATCTAC", "binding signal (RPM ratio (pull-down/input))": 0.481},
      {"sequence": "GATGATTGTTCTCCCAGCTGATGAATTCGTGTGATCGAGTAAACAAATTTTCCTAATCTTTCTGTTCAAGCGCCATCTAC", "binding signal (RPM ratio (pull-down/input))": 0.696},
      {"sequence": "GATGATTGTTCTCCCAGCTGATGAATTGCCTGTCTCGAGTAAACAAATTTTCCTAATCTTTCTGTTCAAGCGCCATCTAC", "binding signal (RPM ratio (pull-down/input))": 0.696},
      {"sequence": "GATGATTGTTCTCCCAGCTGATGAATTGCGTGCGTCGAGTAAACAAATTTTCCTAATCTTTCTGTTCAAGCGCCATCTAC", "binding signal (RPM ratio (pull-down/input))": 1.78},
      {"sequence": "GATGATTGTTCTCCCAGCTGATGAATTTAAACCTTCGAGTAAACAAATTTTCCTAATCTTTCTGTTCAAGCGCCATCTAC", "binding signal (RPM ratio (pull-down/input))": 0.278},
      {"sequence": "GATGATTGTTCTCCCAGCTGATGAATTCTGCAAATCGAGTAAACAAATTTTCCTAATCTTTCTGTTCAAGCGCCATCTAC", "binding signal (RPM ratio (pull-down/input))": 0.696},
      {"sequence": "GATGATTGTTCTCCCAGCTGATGAATTGATACATTCGAGTAAACAAATTTTCCTAATCTTTCTGTTCAAGCGCCATCTAC", "binding signal (RPM ratio (pull-down/input))": 1.84},
      {"sequence": "GATGATTGTTCTCCCAGCTGATGAATTGACGGCTTCGAGTAAACAAATTTTCCTAATCTTTCTGTTCAAGCGCCATCTAC", "binding signal (RPM ratio (pull-down/input))": 0.423},
      {"sequence": "GATGATTGTTCTCCCAGCTGATGAATTGCGCTAATCGAGTAAACAAATTTTCCTAATCTTTCTGTTCAAGCGCCATCTAC", "binding signal (RPM ratio (pull-down/input))": 0.792},
      {"sequence": "GATGATTGTTCTCCCAGCTGATGAATTCATGCCCTCGAGTAAACAAATTTTCCTAATCTTTCTGTTCAAGCGCCATCTAC", "binding signal (RPM ratio (pull-down/input))": 0.665},
      {"sequence": "GATGATTGTTCTCCCAGCTGATGAATTTGGACGATCGAGTAAACAAATTTTCCTAATCTTTCTGTTCAAGCGCCATCTAC", "binding signal (RPM ratio (pull-down/input))": 0.254},
      {"sequence": "GATGATTGTTCTCCCAGCTGATGAATTAATGATCTCGAGTAAACAAATTTTCCTAATCTTTCTGTTCAAGCGCCATCTAC", "binding signal (RPM ratio (pull-down/input))": 0.767},
      {"sequence": "GATGATTGTTCTCCCAGCTGATGAATTGAGCTATTCGAGTAAACAAATTTTCCTAATCTTTCTGTTCAAGCGCCATCTAC", "binding signal (RPM ratio (pull-down/input))": 1.57},
      {"sequence": "GATGATTGTTCTCCCAGCTGATGAATTTTACAAGTCGAGTAAACAAATTTTCCTAATCTTTCTGTTCAAGCGCCATCTAC", "binding signal (RPM ratio (pull-down/input))": 0.192},
      {"sequence": "GATGATTGTTCTCCCAGCTGATGAATTGTAATCTTCGAGTAAACAAATTTTCCTAATCTTTCTGTTCAAGCGCCATCTAC", "binding signal (RPM ratio (pull-down/input))": 0.84},
      {"sequence": "GATGATTGTTCTCCCAGCTGATGAATTCCCTCGCTCGAGTAAACAAATTTTCCTAATCTTTCTGTTCAAGCGCCATCTAC", "binding signal (RPM ratio (pull-down/input))": 0.236},
      {"sequence": "GATGATTGTTCTCCCAGCTGATGAATTTTTTGAGTCGAGTAAACAAATTTTCCTAATCTTTCTGTTCAAGCGCCATCTAC", "binding signal (RPM ratio (pull-down/input))": 0.237},
      {"sequence": "GATGATTGTTCTCCCAGCTGATGAATTTATAGTATCGAGTAAACAAATTTTCCTAATCTTTCTGTTCAAGCGCCATCTAC", "binding signal (RPM ratio (pull-down/input))": 2.27},
      {"sequence": "GATGATTGTTCTCCCAGCTGATGAATTGAGTTAGTCGAGTAAACAAATTTTCCTAATCTTTCTGTTCAAGCGCCATCTAC", "binding signal (RPM ratio (pull-down/input))": 1.26},
      {"sequence": "GATGATTGTTCTCCCAGCTGATGAATTCTAATACTCGAGTAAACAAATTTTCCTAATCTTTCTGTTCAAGCGCCATCTAC", "binding signal (RPM ratio (pull-down/input))": 0.43},
      {"sequence": "GATGATTGTTCTCCCAGCTGATGAATTGGTGCATTCGAGTAAACAAATTTTCCTAATCTTTCTGTTCAAGCGCCATCTAC", "binding signal (RPM ratio (pull-down/input))": 6.97},
      {"sequence": "GATGATTGTTCTCCCAGCTGATGAATTTTATTTGTCGAGTAAACAAATTTTCCTAATCTTTCTGTTCAAGCGCCATCTAC", "binding signal (RPM ratio (pull-down/input))": 6.21},
      {"sequence": "GATGATTGTTCTCCCAGCTGATGAATTGGGCTCTTCGAGTAAACAAATTTTCCTAATCTTTCTGTTCAAGCGCCATCTAC", "binding signal (RPM ratio (pull-down/input))": 0.461},
      {"sequence": "GATGATTGTTCTCCCAGCTGATGAATTGGCAGCGTCGAGTAAACAAATTTTCCTAATCTTTCTGTTCAAGCGCCATCTAC", "binding signal (RPM ratio (pull-down/input))": 0.509},
      {"sequence": "GATGATTGTTCTCCCAGCTGATGAATTCCGATCCTCGAGTAAACAAATTTTCCTAATCTTTCTGTTCAAGCGCCATCTAC", "binding signal (RPM ratio (pull-down/input))": 0.416},
      {"sequence": "GATGATTGTTCTCCCAGCTGATGAATTTGTACTATCGAGTAAACAAATTTTCCTAATCTTTCTGTTCAAGCGCCATCTAC", "binding signal (RPM ratio (pull-down/input))": 2.15},
      {"sequence": "GATGATTGTTCTCCCAGCTGATGAATTCAACTTATCGAGTAAACAAATTTTCCTAATCTTTCTGTTCAAGCGCCATCTAC", "binding signal (RPM ratio (pull-down/input))": 0.561},
      {"sequence": "GATGATTGTTCTCCCAGCTGATGAATTTGCTGATTCGAGTAAACAAATTTTCCTAATCTTTCTGTTCAAGCGCCATCTAC", "binding signal (RPM ratio (pull-down/input))": 4.61},
      {"sequence": "GATGATTGTTCTCCCAGCTGATGAATTTTTCAATTCGAGTAAACAAATTTTCCTAATCTTTCTGTTCAAGCGCCATCTAC", "binding signal (RPM ratio (pull-down/input))": 0.281}
    ]}
  ]
}
